Patent US6391545B1 (priority 1992, dated 2002)

Target: MarR (i.e., MBP-MarR144) to marO (Escherichia coli, UniProt P27245)
Format: binding

MarR (i.e., MBP-MarR144) to marO, sequence (P27245 whole entry): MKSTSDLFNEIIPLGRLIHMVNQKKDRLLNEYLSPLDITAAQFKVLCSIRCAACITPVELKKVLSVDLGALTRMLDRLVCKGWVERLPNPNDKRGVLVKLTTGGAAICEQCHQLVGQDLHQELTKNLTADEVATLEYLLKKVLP

SMILES: O=[N+]([O-])c1ccc(O)c([N+](=O)[O-])c1 [DNP]
- reversal of the binding of MarR (MBP-MarR144) to marO: caused reversal of the binding
